“And” between values parts separate entries of the source, which are not always exact repeats. Equal values may be shown once. The campaign covered roughly 200,000 compounds. About 4,500 (2.2%) were called active. Inconclusive results, whose numbers are uncertain, are shown with a selection of clear calls. The call rests on the fitted dose curve; in most records, active means well fitted inhibition curve with a large enough effect; inconclusive means small, poorly fitted or top-dose-only effect, or effect the other way; inactive means flat fitted curve, though single readings scatter. A potency beside an inconclusive call is a rough fit, not a confirmed value.
The compounds below were run against Cruzipain (Trypanosoma cruzi) (UniProt P25779) (assay: qHTS Assay for Promiscuous and Specific Inhibitors of Cruzain (without detergent)). Conditions: purified cruzain, Z-FR-AMC fluorescence, no detergent.
How it was run: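 Purified cruzain at 1.5 nM, pre-incubated 15 min with compound at room temperature in 100 mM sodium acetate pH 5.5, 5 mM DTT, 0.00005% Triton X-100. Reaction started with 2 uM Z-FR-AMC; AMC fluorescence increase over 60 s gives rate.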
Further: nearly all actives have a fitted effect of over 40% in size.
Potency means the concentration at half of the fitted maximal effect; tags describe the fitted curve by direction and shape.
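Wherever max response, negative = inhibition is given: plate controls were enzyme without inhibitor for no effect and buffer without enzyme for full effect.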

Sequence of UniProt P25779 (P25779 whole entry, looked up): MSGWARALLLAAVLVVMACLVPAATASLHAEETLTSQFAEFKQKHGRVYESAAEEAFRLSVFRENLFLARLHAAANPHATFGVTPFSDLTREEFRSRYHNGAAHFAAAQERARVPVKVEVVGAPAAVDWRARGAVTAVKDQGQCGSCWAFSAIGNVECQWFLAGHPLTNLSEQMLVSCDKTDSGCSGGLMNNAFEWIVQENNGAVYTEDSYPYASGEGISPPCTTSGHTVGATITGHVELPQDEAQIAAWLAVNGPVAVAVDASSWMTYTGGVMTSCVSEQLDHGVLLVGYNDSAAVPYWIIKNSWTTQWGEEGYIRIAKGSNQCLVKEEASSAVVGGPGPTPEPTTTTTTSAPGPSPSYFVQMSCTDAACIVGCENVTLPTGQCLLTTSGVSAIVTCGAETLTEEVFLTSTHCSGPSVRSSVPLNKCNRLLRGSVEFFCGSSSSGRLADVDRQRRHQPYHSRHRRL

SMILES | Potency | max response, negative = inhibition
Cc1c(C(=O)NC2CCCc3ccccc32)oc2ccc(S(=O)(=O)N3CCCC3)cc12 (stereo unspecified) | inconclusive: 39.8 µM [inhibitor, single point] | 
COC(=O)c1c(NC(=O)CN2C(=O)NC3(CCC(C(C)(C)C)CC3)C2=O)sc2c1CCCCC2 (stereo unspecified) | active: 15.8 µM | 
NCCC[C@@H](CC(=O)N[C@@H]1CCNC[C@H]1C(=O)N[C@H](CC(=O)N[C@@H](CCC(=O)O)CC(=O)O)Cc1c[nH]c2ccccc12)NC(=O)C[C@H](Cc1ccccc1)NC(=O)[C@@H]1CCCC[C@H]1N |  | inactive: 6.88%
CCN1CCCC1CN(Cc1cc2cc(C)cc(C)c2[nH]c1=O)C(=O)Nc1ccccc1OC (stereo unspecified) |  | inactive: -2.25%
Cc1ccc2c(CN3CCN(S(=O)(=O)/C=C/c4ccccc4)CC3)cc(=O)oc2c1 | active: 25.1 µM | 
C/C(CC(=O)Nc1ccc(OCc2ccccc2)cc1)=N\NC(=O)C(=O)Nc1cccc(C)c1 | active: 31.6 µM | 
CC(C)[C@@H]1C(=O)N(S(C)(=O)=O)[C@H]2CCN(C(=O)/C=C\CN3CCCCC3)[C@@H]12 |  | inactive: 5.82%
COc1ccc(-n2c(Cc3ccccc3)nnc2SCc2ccc([N+](=O)[O-])cc2)cc1 | inconclusive: 0.158 µM [inhibitor, single point] | 
Cc1ccc(Cn2c(CN(C)Cc3ccccc3)nc3c2c(=O)n(C)c(=O)n3C)cc1 | inconclusive: 25.1 µM [activator, single point] | 
CC[C@H](C)C(=O)O[C@H]1C[C@@H](C)C=C2C=C[C@H](C)[C@H](CC[C@@H]3C[C@@H](O)CC(=O)O3)[C@H]21 | inconclusive: 25.1 µM [activator, partial curve] and inconclusive: 25.1 µM [activator, single point] | 
COc1cccc(Cn2c(=O)c(C)nc3cnc(Oc4ccccc4)nc32)c1 | inconclusive: 39.8 µM [activator, single point] | 
C=CC[n+]1c(-c2ccc(OC)cc2)csc1NNC(=O)Nc1ccccc1 | inconclusive: 31.6 µM [inhibitor, single point] | 
COc1ccccc1C(=O)NCCc1csc(-c2ccc(C(F)(F)F)cc2)n1 | inconclusive: 31.6 µM [activator, single point] | 
COc1cc(NC(=O)Cn2c(=O)n(CC3CCCO3)c(=O)c3cc(OC)c(OC)cc32)cc(OC)c1 (stereo unspecified) | inconclusive: 39.8 µM [activator, single point] | 
Cc1ccc(-c2cc(NC(=O)COc3c(C)cc(C)cc3C)on2)cc1 | inconclusive: 39.8 µM [inhibitor, single point] | 
CCOC(=O)N1CCN(C(=O)c2ccc3nc(SCc4ccc(F)cc4)n(C)c3c2)CC1 | inconclusive: 39.8 µM [activator, single point] | 
O=C(CSc1nc(Nc2ccccc2)nc(N2CCOCC2)n1)N1CCc2ccccc21 | inconclusive: 39.8 µM [inhibitor, single point] | 
COc1cc(C(c2c(O)c3ccccc3oc2=O)c2c(C)n(C)n(-c3ccccc3)c2=O)ccc1O (stereo unspecified) | inconclusive: 39.8 µM [activator, single point] | 
Cc1ccc2cc(C)c3nnc(SCC(=O)Nc4nc5c(s4)CCCC5)n3c2c1 | inconclusive: 20 µM [activator, partial curve] | 
Cc1ccc(N2C(=O)CC(Sc3ncn[nH]3)C2=O)cc1C (stereo unspecified) | inconclusive: 15.8 µM [inhibitor, partial curve] | 
O=c1c2ccccc2nc(SCc2cc([N+](=O)[O-])cc3c2OCOC3)n1-c1ccccc1 | active: 12.6 µM | 

SMILES | Potency | max response, negative = inhibition
CN1CCN(c2ncc3nc(-c4cn(C)c5ccccc45)c(=O)n(C[C@H]4CCCO4)c3n2)CC1 |  | inactive: 10.3%
O=C(CON1C(=O)c2ccccc2C1=O)c1ccccc1 | inconclusive: 3.98 µM [inhibitor, single point] | 
CCOC(=O)c1c(C)cc(O)c(C=O)c1O |  | inactive: 1.53%
COc1ccc(/C=C(\C#N)C(=O)c2c(C)[nH]c3ccccc23)cc1OC | inconclusive: 39.8 µM [activator, single point] | 
COC(=O)c1ccccc1NC(=O)Cn1ncc2c(C)n(Cc3ccc(F)cc3)c(C)c2c1=O |  | inactive: -21.7%
CCc1ccc(NC(=O)N(CCCOC(C)C)C2CCN(C(C)=O)CC2)cc1 | inconclusive: 31.6 µM [activator, single point] | 
CC(C)CCNC(=O)CN(C(=O)Cn1nnc(-c2ccc(F)cc2)n1)C1CCCC1 | inconclusive: 0.199 µM [inhibitor, full curve, poor fit] | 
Cc1ccc(OCCSc2nc3ccccc3n2CC(=O)N2CCCCC2)cc1C | inconclusive: 25.1 µM [activator, single point] | 
COc1ccc(-c2noc(-c3cc(C(C)C)[nH]n3)n2)cc1 |  | inactive: 14.2%
O=C(NCc1ccc(Cl)cc1)C1(c2cccs2)CCOCC1 |  | inactive: 8.2%
Cc1cc2oc(C(=O)N(Cc3ccc(N(C)C)cc3)CC3CCCO3)c(C)c2cc1C (stereo unspecified) | inconclusive: 39.8 µM [activator, single point] | 
O=C(CCCCn1c(=O)c2ccccc2n(Cc2ccccc2F)c1=O)NCc1ccc2c(c1)OCO2 |  | inactive: 0.421%
CCC1=Nc2cc(C(=O)NCCCOC(C)C)ccc2Sc2ccc(C)cc21 | inconclusive: 31.6 µM [activator, single point] | 
COc1ccccc1N(CC(O)CN(c1ccccc1)S(C)(=O)=O)S(=O)(=O)c1ccccc1 (stereo unspecified) | inconclusive: 39.8 µM [activator, single point] | 
O=C(O)/C=C\c1c2ccc(=O)c(O)c-2oc2c(O)c(O)ccc12 |  | inactive: 4.91%
Cc1ccc(NC(=O)N2CCc3c(sc4c3CCCC4)C2c2ccccc2)cc1F (stereo unspecified) | active: 7.94 µM | 
O=C1CC(c2ccco2)CC(O)=C1C=Nc1ccc(Br)cc1 (stereo unspecified) | inconclusive: 39.8 µM [inhibitor, single point] | 
CCCCc1nn2c(=O)cc(COC(=O)c3ccc(NC(=O)c4cccc(OC)c4)cc3)nc2s1 |  | inactive: -1.59%
CC(C)CC(NC(=O)c1ccccc1)C(=O)OCC(=O)Nc1ccc(Br)cn1 (stereo unspecified) | inconclusive: 25.1 µM [inhibitor, single point] | 
CCc1cccc(C)c1NC(=O)C(CC)Sc1nc2ccncc2[nH]1 (stereo unspecified) |  | inactive: -0.237%
CCn1cc(Cl)c(C(=O)N2N=C3/C(=C/c4cccs4)CCCC3C2c2cccs2)n1 (stereo unspecified) | inconclusive: 39.8 µM [activator, single point] | 

SMILES | Potency | max response, negative = inhibition
CCOc1cccc2sc(NC(=O)c3ccc(S(=O)(=O)N4CCc5ccccc54)cc3)nc12 | inconclusive: 1.58 µM [inhibitor, partial curve] | 
CCOC(=O)C1=C(N)n2c(s/c(=C\c3ccco3)c2=O)=C(C(=O)OCC)C1c1ccco1 (stereo unspecified) | active: 7.94 µM | 
CCC1=C(OC(=O)N(CC)CC)N2C(=O)OC(=NCC(=O)OC)[C@]2(Cc2ccccc2)[C@H]2C1=CC[C@H]1C(=O)N(CC(=O)OC)C(=O)[C@H]12 | inconclusive: 10 µM [activator, partial curve] | 
COc1ccc(-c2cc(C(F)(F)F)nc(SCC(=O)Nc3ccc4c(c3)OCO4)n2)cc1 | inconclusive: 39.8 µM [inhibitor, single point] | 
COc1ccc(NC(=O)N2CC3(CCN(C(=O)c4c(C)noc4C)CC3)C2)cc1 |  | inactive: -2.91%
Cc1ccc(OCC(=O)Nc2ccc(S(=O)(=O)Nc3ncccn3)cc2)c(C(C)(C)C)c1 | inconclusive: 39.8 µM [inhibitor, single point] | 
Cc1cc(NC(=O)Cn2c(=O)n(Cc3ccccc3)c(=O)c3ccccc32)no1 | inconclusive: 25.1 µM [inhibitor, single point] | 
CCOc1ccccc1NC(=O)N1CCCC(c2nc3c(nnn3Cc3ccc(C)cc3)c(=O)[nH]2)C1 (stereo unspecified) | inconclusive: 31.6 µM [activator, single point] | 
COc1ccc(CNC(=O)c2ccc(Cn3c(=O)c4cccn4c4cccnc43)cc2)cc1OC |  | inactive: -5.73%
O=C(O)CCCNc1cc(N2CCC3(CC2)OCCO3)c2noc3c2c1C(=O)c1ccccc1-3 | inconclusive: 39.8 µM [activator, single point] | 
COc1ccc2cc(CN(CC3CCCO3)S(=O)(=O)c3ccccc3)c(=O)[nH]c2c1 (stereo unspecified) | inconclusive: 31.6 µM [activator, single point] | 
COc1ccc(/C=C(\C#N)C(=O)OCC(=O)Nc2c(C)cccc2C)cc1 | inconclusive: 31.6 µM [inhibitor, single point] | 
Cc1ccc(-c2csc(/C(C#N)=C/c3ccccc3Cl)n2)cc1 | inconclusive: 39.8 µM [inhibitor, single point] | 
Cc1cc(C)c(-c2csc(NC(=O)c3cc([N+](=O)[O-])ccc3N3CCOCC3)n2)c(C)c1 |  | inactive: -14.4%
O=C(CSc1nnc(CNC(=O)c2ccccc2)n1-c1cccc(Cl)c1)Nc1ccccc1F |  | inactive: 55.7%
COc1ccccc1N1CCN(C(=O)CCS(=O)(=O)c2cc(Br)cc3c2N(C(=O)C2CC2)CC3)CC1 | inconclusive: 25.1 µM [activator, single point] | 
O=C(Nc1ccc(F)cc1)c1cccn1-c1nnc(N2CCCCC2)s1 |  | inactive: 3.97%
COc1cccc(C2C(C(=O)Nc3ccccc3OC)=C(C)Nc3nc4ccccc4n32)c1 (stereo unspecified) |  | inactive: 0.0014%
NS(=O)(=O)c1ccc(CCNC(=O)c2nc(SCc3ccccc3F)ncc2Cl)cc1 | inconclusive: 25.1 µM [inhibitor, single point] | 
